Test results taken from patent publication US9776999B2, “Antiparisitic dihydroazole compounds and compositions comprising same” (MERIAL, INC., priority 2009, dated 2017).

Tested on: Stomoxys calcitrans
Assay: Contact activity of compounds against stable flies (Method D)
Settings: adult flies, treated filter paper; assessment at 24 hours; test concentration of 5 μg/cm2 or less; versus untreated controls
Procedure: A small piece of absorbent cotton moistened with 10% sucrose and ten adult flies (Stomoxys calcitrans) were added to each dish. Dishes were capped and held at room temperature. Assessments were performed at 24 hours after infestation in comparison with untreated controls.

Compound: CSCCNC(=O)c1ccc(C2=NOC(c3cc(Cl)cc(Cl)c3)(C(F)(F)F)C2)n2cccc12 (stereo not shown) [Compound 1.013, 5-[5-(3,5-Dichlorophenyl)-5-trifluoromethyl-4,5-dihydroisoxazol-3-yl]-indolizine-8-carboxylic acid (2-methylthioethyl)-amide]
- control (Stomoxys calcitrans, contact): at least 80%
